# Experimental data: PubChem BioAssay AID686979 (National Center for Advancing Translational Sciences (NCATS), 2013)
# Out of some 420,000 compounds screened, about 50,000 (12%) were called active. This list was built around the results that the source calls inconclusive (neither active nor inactive); the mix of calls is not that of the screen. The call rests on the fitted dose curve; in most records, active means well fitted inhibition curve with a large enough effect; inconclusive means small, poorly fitted or top-dose-only effect; inactive means flat fitted curve, though single readings scatter. No potency is given beside an inconclusive call; the fits are too rough.
# Assay: qHTS for Inhibitors of human tyrosyl-DNA phosphodiesterase 1 (TDP1): qHTS in cells in presence of CPT; further: nearly all actives have a fitted effect of over 55% in size
# Conditions: chicken DT40 Tdp1-/-;hTDP1 cells + 20 nM CPT, ATP luminescence, 48 h; activity change, negative = growth inhibition: at 46.2 µM (top of the series) unless noted
# How it was run: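 Chicken DT40 Tdp1-/- cells complemented with human TDP1, 400 cells/well, exposed to compounds plus 20 nM camptothecin for at least 48 h at 37 C; viability read as ATP content by CellTiter-Glo luminescence.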
# On the % scale 0 is the no-effect control and ±100 the full control effect; potency means the concentration at half of the fitted maximal effect; tags describe the fitted curve by direction and shape.
Structure (SMILES),"activity change, negative = growth inhibition",Potency
CCCCNC(=O)C1c2ccccc2OCC(=O)N1CCCN1CCOCC1 (stereo unspecified),inactive: -8.81%,–
CCc1ccc(-c2nc(CS(=O)CC(=O)NCCc3ccc(C)cc3)c(C)o2)cc1 (stereo unspecified),–,active: 23.1 µM
Cc1ccc(S(=O)(=O)N2CCN(C(=O)c3ccc4c(c3)OCO4)CC2)cc1,inconclusive: -37.5% [inhibitor],–
CCOc1ccc(N(C)C(=O)c2oc(=O)c3ccccc3c2-c2ccccc2)cc1,–,active: 18.4 µM
Cc1ccc2c(CN3CCC(C)CC3)cc(=O)oc2c1C,–,"inconclusive [inhibitor, single point]"
Cc1c(C(=O)Nc2ccccc2)sc2nc(-c3ccccc3)cn12,–,active: 18.4 µM
O=c1[nH]c(SCc2nc3ccccc3c(=O)n2-c2ccccc2)nc2ccccc12,–,active: 11.6 µM
COc1ccc(N2CCN(C(=O)CCCOc3cc(=O)n(C)c4ccccc34)CC2)cc1,–,"inconclusive [inhibitor, single point]"
Cc1cc(N/N=C/c2ccc(O)cc2O)nc(N2CCOCC2)n1,inactive: -3.02%,–
CSC(=S)NCc1cccnc1,–,active: 2.91 µM
Cc1ccsc1C(=O)N1CCC1(C)C(=O)NS(=O)(=O)c1ccccc1 (stereo unspecified),inactive: -8.42%,–
Cc1cccc(NC(=O)CNC(=O)CN2CCN(C)CC2)c1C,inactive: 6.88%,–
CC1CCC(NC(=O)C2CCC(CNS(=O)(=O)c3cccc4cccnc34)CC2)CC1 (stereo unspecified),–,"inconclusive [inhibitor, single point]"
N#Cc1c(N)sc(=S)c2c1CCCC2,–,"inconclusive [inhibitor, partial curve]"
Cc1ccc(OCCn2cnc3c2c(=O)n(C)c(=O)n3C)cc1,–,"inconclusive [inhibitor, partial curve, poor fit]"
COc1cc(CNC(=O)c2cc(C(=O)NCc3cc(OC)cc(OC)c3)n(C)n2)cc(OC)c1,–,"inconclusive [inhibitor, partial curve]"
COc1cccc(CNCc2ccc(OC)cc2OC)c1,–,"inconclusive [inhibitor, single point]"
Cc1cc(C)c2nc(SCC(=O)N3CC(=O)Nc4ccccc43)c(C#N)cc2c1,–,active: 1.3 µM
Cc1ccc(C)c2[nH]c(=O)c(CCNC(=O)c3ccc(S(=O)(=O)N4CCCC4)cc3)cc12,–,"inconclusive [inhibitor, single point]"
Cc1ccc(NC(=O)C2CCCN2C(=O)c2cccs2)c(C)c1 (stereo unspecified),inactive: -6.3%,–
Cc1cc(C)nc(NC(=O)Nc2ccccc2C(F)(F)F)n1,–,"inconclusive [inhibitor, single point]"
Cc1ccccc1N(C(=O)c1snc(C(N)=O)c1N)C(C(=O)NC1CCCC1)c1ccco1 (stereo unspecified),inactive: -27.7%,–
COC(=O)c1ccc(Oc2ccc(C(F)(F)F)cn2)cc1,inactive: 1.49%,–
CN(CC(=O)Nc1ccc(F)cc1)C(=O)CSc1nnc(Cc2ccccc2)o1,–,"inconclusive [inhibitor, single point]"

Structure (SMILES),"activity change, negative = growth inhibition",Potency
Cc1ccc(N(CC(=O)N2CCN(c3cc(C)ccc3C)CC2)S(=O)(=O)c2c(C)nn(C)c2C)cc1,–,active: 20.6 µM
O=C(O)CC1c2ccccc2CCN1C(=O)Nc1cc(Cl)ccc1Cl (stereo unspecified),–,active: 20.6 µM
Cc1ccc(-c2nnc(N3CCOCC3)c3ccccc23)cc1S(=O)(=O)NCC1CCCO1 (stereo unspecified),–,"inconclusive [inhibitor, single point]"
CC(C(=O)N1CCN(C2c3ccccc3-c3ccccc32)CC1)N1C(=O)c2ccccc2C1=O (stereo unspecified),–,"inconclusive [inhibitor, single point]"
O=[N+]([O-])c1nn(-c2ccccc2)n(O)c1=NC1CCN(Cc2ccccc2)CC1,–,active: 3.26 µM
CCn1cc2c(n1)-c1c(oc(C(=O)Nc3ccc(Br)cc3F)c1C)CC2,–,"inconclusive [inhibitor, single point]"
CCOc1ccc(NS(=O)(=O)c2ccc(NC(=O)c3ccccn3)cc2)cc1,–,"inconclusive [inhibitor, partial curve]"
COc1ccc(-c2cc(C)no2)cc1S(=O)(=O)NCCCN1CCN(c2ccccc2)CC1,–,"inconclusive [inhibitor, single point]"
COc1ccc(-n2c(C)cc(C(=O)Cn3c(NCCO)nc4ccccc43)c2C)cc1,–,"inconclusive [inhibitor, single point]"
CCc1cccc(CC)c1NC(=O)CCCSc1nc2ccccc2s1,–,"inconclusive [inhibitor, single point]"
OC(CNC1CCCCCC1)COc1cccc2ccccc12 (stereo unspecified),–,active: 16.4 µM
O=c1cc(CSc2nnc(-c3cccs3)n2Cc2ccccc2)nc2sc3ccccc3n12,–,active: 5.8 µM
CN(C)CC(CCC(CN(C)C)C(=O)c1ccccc1)C(=O)c1ccccc1 (stereo unspecified),–,active: 1.46 µM
Cc1ccc(-n2nc3c(c2NC(=O)C(C)C)CS(=O)(=O)C3)cc1,inactive: 3.88%,–
Cc1ccc(CN(C(=O)c2ccc(OCC(C)C)cc2)c2ccccn2)o1,–,"inconclusive [inhibitor, partial curve]"
CCOc1cc(OCC)c(C(C)=O)cc1OCC,–,"inconclusive [inhibitor, single point]"
CCc1ccc(Nc2ccc(C(N)=O)cc2[N+](=O)[O-])cc1,–,"inconclusive [inhibitor, single point]"
CN(C)C(=O)c1ccc(NC(=O)c2cccc(S(=O)(=O)N3CCCc4ccccc43)c2)cc1,–,active: 23.1 µM
C/C(=N\Nc1cc(C)nc(-c2ccccc2O)n1)c1ccccc1O,inactive: -86.1%,–
COc1ccc(Br)c(C(=O)N2CCN(S(=O)(=O)/C=C/c3ccccc3)CC2)c1,inactive: -25.9%,–
COC(=O)COc1ccc(-c2nnc(Nc3ccc(O)cc3)c3ccccc23)cc1,–,"inconclusive [inhibitor, single point]"
CN1C(=O)c2ccc(NC(=O)c3c(C(=O)O)cccc3[N+](=O)[O-])cc2C1=O,inactive: -7.3%,–
CN(C)c1ccc(-c2nnn(CC(=O)Nc3ccccc3N3CCOCC3)n2)cc1,–,"inconclusive [inhibitor, single point]"
Cc1noc(C)c1S(=O)(=O)N1CCCC(C(=O)NCCc2ccc(Cl)cc2)C1 (stereo unspecified),–,"inconclusive [inhibitor, partial curve]"

Structure (SMILES),"activity change, negative = growth inhibition",Potency
CC(=O)Oc1ccc2c(C)c(CC(=O)N3CCN(C(=O)C4COc5ccccc5O4)CC3)c(=O)oc2c1C (stereo unspecified),–,"inconclusive [inhibitor, single point]"
O=C(c1ccco1)N1CCC(c2nc(-c3ccccc3Cl)no2)CC1,–,"inconclusive [inhibitor, single point]"
Cn1c(=O)c2c(nc(Sc3ncccn3)n2Cc2ccccc2Cl)n(C)c1=O,–,"inconclusive [inhibitor, single point]"
CCCCC1CCC(C(=O)N2CC(=O)Nc3ccc(Br)cc3C2c2ccc(F)cc2)CC1 (stereo unspecified),–,active: 23.1 µM
Cc1ccnc(NC(=O)Nc2ccc3c(c2)N(C)C(=O)CS3)c1,–,"inconclusive [inhibitor, single point]"
CS(=O)(=O)N(CC(=O)Nc1ccc2c(c1)OCO2)c1ccc(Cl)cc1,inactive: 6.3%,–
COc1ccc(CN2C(=O)c3ccccc3C2C(=O)NC2CCCC(C)C2C)c(OC)c1 (stereo unspecified),–,"inconclusive [inhibitor, single point]"
Cc1cc(-c2n[nH]c(=S)n2/N=C/c2cccs2)n[nH]1,inactive: -12.3%,–
O=C(Nc1c(C(=O)Nc2cccc3ccccc23)cnn1-c1ccccc1)c1ccco1,–,"inconclusive [inhibitor, single point]"
O=C(c1cccc(Cl)c1)N1CCN(S(=O)(=O)c2ccc(Cl)s2)CC1,–,"inconclusive [inhibitor, partial curve, poor fit]"
COc1ccc(C(=O)ON=C2c3ccccc3-c3ccccc32)cc1OC,–,"inconclusive [inhibitor, single point]"
CCC1(C)Cc2c(sc3c2c(=O)n(C)c2nnc(SCC(=O)c4ccccc4)n32)CO1 (stereo unspecified),–,"inconclusive [inhibitor, single point]"
Cc1cccc2c1-c1sc(C(=O)Nc3ccc(F)cc3F)cc1CO2,–,"inconclusive [inhibitor, single point]"
O=C(Nc1cccc(C(F)(F)F)c1)C1CCN(S(=O)(=O)c2cccnc2)CC1,–,"inconclusive [inhibitor, single point]"
S=C(Nc1nc2c(s1)CCCC2)NC1CC1,–,"inconclusive [inhibitor, single point]"
COc1cccc(-c2cc(CC3(O)CCN(CCCc4ccccc4)CC3)on2)c1,inactive: -14.4%,–
COc1cccc(CNC(=O)c2cc(S(=O)(=O)N3CCOCC3)cn2C)c1,–,active: 20.6 µM
Cc1cc(C)c(C)c(N=Nc2nc3ccccc3n2C)c1C,–,"inconclusive [inhibitor, single point]"
Cc1ccc(/C=N/Nc2ccc3ccccc3n2)o1,–,active: 2.31 µM
CCOC(=O)NC(C(Cl)(Cl)Cl)S(=O)(=O)c1ccccc1 (stereo unspecified),–,"inconclusive [inhibitor, single point]"
Cc1ccc(CNC(=O)C(=O)Nc2c3c(nn2-c2ccc(F)cc2)CSC3)cc1,–,"inconclusive [inhibitor, full curve]"
COc1ccccc1-c1cc(NC=O)c2ncc(-c3ccc(S(C)(=O)=O)cc3)n2c1,–,active: 11.6 µM
Cc1ccc(CNC(=O)c2ccc(N3CCCC3)c(NC(=O)Nc3ccc(C)cc3)c2)cc1,–,active: 14.6 µM
